# Data: the supplement of paper PMC8728848
# This is one part of the list.
# B1: TLEC1 (Arabidopsis thaliana), Q9C5Q9 (protein)
# chain: MSGASSVSSICSSNVSLIPTGPQVFINFRGKDLRKGFMSFLKPALKKEKINVFIDEQEERGKYLISLFDTIGESKIALVIFSEGYCESHWCMDELVKIKEYMDQNRLIIIPIFYRLDLDVVKDLTGKFGDNFWDLVDKYQPEPKKLHKWTEALFSVCELFSLILPKHSDISDRDFVKSIVKAVKKVQKNFFQRRNGEIEYQDFSVPACKLTITMHESPNEEAVQVTVLNEFYQMKNQSPVPSYEFKFWVDLTRPKGNVFMIDARDLSIAWSEDSNHWTWLPLPNQNSNESVMEIAFLKSASWLDVAGKFDTRYLTPRTRYEVVFVVKLEYTFEWETLVKLKLDLPNTWEKPQEQSVDMFDYISDQWLDIPVGEFTTSKKNVGEISFAMYEHECQLWKSGLFVKGVTIRPKY
# Columns and labels:
# Assay in all cases: glycan array binding signal (z-score within array); higher = stronger binding
# Conditions in all cases: glycan notation: IUPAC condensed, linker removed
# [1] = target: GlcNAc(b1-6)Gal(b1-4)GlcNAc
# Procedure, shortened: (§1)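 The binding signal is a Z-score computed within each array and averaged over linkers. Arrays of the same protein sequence at different concentrations or buffers were also averaged together. Data originate from 3228 arrays in the Consortium for Functional Glycomics database, kept only where the protein sequence was available.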
# GlcNAc(b1-6)GalNAc = target: GlcNAc(b1-6)GalNAc
# Procedure, shortened: as §1
# Kdn(a2-3)Gal(b1-3)GlcNAc = target: Kdn(a2-3)Gal(b1-3)GlcNAc
# Procedure, shortened: as §1
# Kdn(a2-3)Gal(b1-4)GlcNAc = target: Kdn(a2-3)Gal(b1-4)GlcNAc
# Procedure, shortened: as §1
# [2] = target: Man(a1-2)Man(a1-2)Man(a1-3)Man
# Procedure, shortened: as §1
# [3] = target: Man(a1-2)Man(a1-2)Man(a1-3)[Man(a1-2)Man(a1-3)[Man(a1-2)Man(a1-6)]Man(a1-6)]Man(b1-4)GlcNAc(b1-4)GlcNAc
# Procedure, shortened: as §1
# [4] = target: Man(a1-2)Man(a1-2)Man(a1-3)[Man(a1-2)Man(a1-6)[Man(a1-3)]Man(a1-6)]Man(b1-4)GlcNAc(b1-4)GlcNAc
# Procedure, shortened: as §1
# [5] = target: Man(a1-2)Man(a1-2)Man(a1-6)[Man(a1-3)]Man
# Procedure, shortened: as §1
# Man(a1-2)Man(a1-3)Man = target: Man(a1-2)Man(a1-3)Man
# Procedure, shortened: as §1
# [6] = target: Man(a1-2)Man(a1-3)[Man(a1-2)Man(a1-6)]Man
# Procedure, shortened: as §1
# [7] = target: Man(a1-2)Man(a1-3)[Man(a1-3)[Man(a1-6)]Man(a1-6)]Man(b1-4)GlcNAc(b1-4)GlcNAc
# Procedure, shortened: as §1
# [8] = target: Man(a1-2)Man(a1-3)[Man(a1-6)]Man(a1-6)[Man(a1-2)Man(a1-3)]Man(b1-4)GlcNAc(b1-4)GlcNAc
# Procedure, shortened: as §1
# Man(a1-3)[Man(a1-6)]Man = target: Man(a1-3)[Man(a1-6)]Man
# Procedure, shortened: as §1
# [9] = target: Man(a1-3)[Man(a1-6)]Man(a1-6)[Man(a1-3)]Man(b1-4)GlcNAc(b1-4)GlcNAc
# Procedure, shortened: as §1
# [10] = target: Man(a1-3)[Man(a1-6)]Man(b1-4)GlcNAc(b1-4)GlcNAc
# Procedure, shortened: as §1
# Man(b1-4)GlcNAc = target: Man(b1-4)GlcNAc
# Procedure, shortened: as §1
# Neu5Ac(a2-3)Gal = target: Neu5Ac(a2-3)Gal
# Procedure, shortened: as §1
# [11] = target: Neu5Ac(a2-3)Gal(b1-3)GalNAc
# Procedure, shortened: as §1
# [12] = target: Neu5Ac(a2-3)Gal(b1-3)GalNAc(b1-3)Gal(a1-4)Gal(b1-4)Glc
# Procedure, shortened: as §1
# [13] = target: Neu5Ac(a2-3)Gal(b1-3)GalNAc(b1-4)[Neu5Ac(a2-3)]Gal(b1-4)Glc
# Procedure, shortened: as §1
# [14] = target: Neu5Ac(a2-3)Gal(b1-3)GalNAc6S
# Procedure, shortened: as §1
# [15] = target: Neu5Ac(a2-3)Gal(b1-3)GlcNAc
# Procedure, shortened: as §1
# [16] = target: Neu5Ac(a2-3)Gal(b1-3)GlcNAc(b1-3)Gal(b1-3)GlcNAc
# Procedure, shortened: as §1
# [17] = target: Neu5Ac(a2-3)Gal(b1-3)GlcNAc(b1-3)Gal(b1-4)GlcNAc
# Procedure, shortened: as §1
# [18] = target: Neu5Ac(a2-3)Gal(b1-3)GlcNAc6S
# Procedure, shortened: as §1
# [19] = target: Neu5Ac(a2-3)Gal(b1-3)[Fuc(a1-4)]GlcNAc
# Procedure, shortened: as §1
# [20] = target: Neu5Ac(a2-3)Gal(b1-3)[Fuc(a1-4)]GlcNAc(b1-3)Gal(b1-4)[Fuc(a1-3)]GlcNAc
# Procedure, shortened: as §1
# [21] = target: Neu5Ac(a2-3)Gal(b1-3)[Neu5Ac(a2-3)Gal(b1-4)]GlcNAc
# Procedure, shortened: as §1
# [22] = target: Neu5Ac(a2-3)Gal(b1-3)[Neu5Ac(a2-6)]GalNAc
# Procedure, shortened: as §1
# Neu5Ac(a2-3)Gal(b1-4)Glc = target: Neu5Ac(a2-3)Gal(b1-4)Glc
# Procedure, shortened: as §1
# [23] = target: Neu5Ac(a2-3)Gal(b1-4)GlcNAc
# Procedure, shortened: as §1
# [24] = target: Neu5Ac(a2-3)Gal(b1-4)GlcNAc(b1-3)Gal(b1-3)GlcNAc
# Procedure, shortened: as §1
# [25] = target: Neu5Ac(a2-3)Gal(b1-4)GlcNAc(b1-3)Gal(b1-4)GlcNAc
# Procedure, shortened: as §1
# [26] = target: Neu5Ac(a2-3)Gal(b1-4)GlcNAc(b1-3)Gal(b1-4)GlcNAc(b1-3)Gal(b1-4)GlcNAc
# Procedure, shortened: as §1
# [27] = target: Neu5Ac(a2-3)Gal(b1-4)GlcNAc(b1-3)Gal(b1-4)[Fuc(a1-3)]GlcNAc
# Procedure, shortened: as §1
# [28] = target: Neu5Ac(a2-3)Gal(b1-4)GlcNAc(b1-6)[Gal(b1-3)]GalNAc
# Procedure, shortened: as §1
# [29] = target: Neu5Ac(a2-3)Gal(b1-4)GlcNAc6S
# Procedure, shortened: as §1
# [30] = target: Neu5Ac(a2-3)Gal(b1-4)[Fuc(a1-3)]GlcNAc
# Procedure, shortened: as §1
# [31] = target: Neu5Ac(a2-3)Gal(b1-4)[Fuc(a1-3)]GlcNAc(b1-3)Gal
# Procedure, shortened: as §1
# [32] = target: Neu5Ac(a2-3)Gal(b1-4)[Fuc(a1-3)]GlcNAc(b1-3)Gal(b1-4)GlcNAc
# Procedure, shortened: as §1
# [33] = target: Neu5Ac(a2-3)Gal(b1-4)[Fuc(a1-3)]GlcNAc(b1-3)Gal(b1-4)[Fuc(a1-3)]GlcNAc(b1-3)Gal(b1-4)[Fuc(a1-3)]GlcNAc
# Procedure, shortened: as §1
# [34] = target: Neu5Ac(a2-3)Gal(b1-4)[Fuc(a1-3)]GlcNAc6S
# Procedure, shortened: as §1
# [35] = target: Neu5Ac(a2-3)Gal6S(b1-4)GlcNAc
# Procedure, shortened: as §1
# [36] = target: Neu5Ac(a2-3)Gal6S(b1-4)[Fuc(a1-3)]GlcNAc
# Procedure, shortened: as §1
# Neu5Ac(a2-3)GalNAc = target: Neu5Ac(a2-3)GalNAc
# Procedure, shortened: as §1
binder,measurement,setting,value
B1,glycan array binding signal (z-score),[1],-0.269
same,glycan array binding signal (z-score),GlcNAc(b1-6)GalNAc,-0.327
same,glycan array binding signal (z-score),Kdn(a2-3)Gal(b1-3)GlcNAc,-0.394
same,glycan array binding signal (z-score),Kdn(a2-3)Gal(b1-4)GlcNAc,-0.399
same,glycan array binding signal (z-score),[2],-0.005
same,glycan array binding signal (z-score),[3],-0.515
same,glycan array binding signal (z-score),[4],-0.509
same,glycan array binding signal (z-score),[5],-0.204
same,glycan array binding signal (z-score),Man(a1-2)Man(a1-3)Man,-0.124
same,glycan array binding signal (z-score),[6],-0.196
same,glycan array binding signal (z-score),[7],-0.392
same,glycan array binding signal (z-score),[8],-0.435
same,glycan array binding signal (z-score),Man(a1-3)[Man(a1-6)]Man,-0.105
same,glycan array binding signal (z-score),[9],-0.391
same,glycan array binding signal (z-score),[10],-0.449
same,glycan array binding signal (z-score),Man(b1-4)GlcNAc,-0.208
same,glycan array binding signal (z-score),Neu5Ac(a2-3)Gal,-0.392
same,glycan array binding signal (z-score),[11],-0.332
same,glycan array binding signal (z-score),[12],-0.556
same,glycan array binding signal (z-score),[13],-0.512
same,glycan array binding signal (z-score),[14],-0.233
same,glycan array binding signal (z-score),[15],-0.468
same,glycan array binding signal (z-score),[16],-0.526
same,glycan array binding signal (z-score),[17],-0.488
same,glycan array binding signal (z-score),[18],-0.383
same,glycan array binding signal (z-score),[19],-0.525
same,glycan array binding signal (z-score),[20],-0.08
same,glycan array binding signal (z-score),[21],-0.547
same,glycan array binding signal (z-score),[22],-0.553
same,glycan array binding signal (z-score),Neu5Ac(a2-3)Gal(b1-4)Glc,-0.3
same,glycan array binding signal (z-score),[23],-0.492
same,glycan array binding signal (z-score),[24],-0.473
same,glycan array binding signal (z-score),[25],-0.327
same,glycan array binding signal (z-score),[26],-0.588
same,glycan array binding signal (z-score),[27],-0.405
same,glycan array binding signal (z-score),[28],-0.341
same,glycan array binding signal (z-score),[29],-0.498
same,glycan array binding signal (z-score),[30],-0.372
same,glycan array binding signal (z-score),[31],-0.504
same,glycan array binding signal (z-score),[32],0.154
same,glycan array binding signal (z-score),[33],-0.302
same,glycan array binding signal (z-score),[34],-0.464
same,glycan array binding signal (z-score),[35],0.346
same,glycan array binding signal (z-score),[36],-0.194
same,glycan array binding signal (z-score),Neu5Ac(a2-3)GalNAc,-0.362
